Measured values from paper PMC10068449 (Cancer discovery, 2023).

B1: Flag-HA tagged wildtype human TPI1 (guide RNA resistant transgene) (enzyme)
chain: not shown
B2: Flag-HA tagged human TPI1 S21A (guide RNA resistant transgene) (enzyme)
chain: not shown

Molecular target: the molecule itself
Test: native gel or EMSA

Protein	stoichiometry N
B1	2
B2	2
